The chains are these.
T1: RBFOX1 RRM (Homo sapiens, UniProt Q9NWB1 109-208)
T1 sequence: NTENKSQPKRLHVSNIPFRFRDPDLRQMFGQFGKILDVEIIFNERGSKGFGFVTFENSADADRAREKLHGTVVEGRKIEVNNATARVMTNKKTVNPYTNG

B1: AAGACGA (DNA:RNA)
RNA: GGGAGACCGGAAUUCAGAUUGUCCAAGACGAUUAAAUCCCGUCGUAGCCACCA
DNA 1: CAATCTGAATTCCGGTCTCCC
DNA 2: TGGTGGCTACGACGGGATT
B2: AGCAGAU (DNA:RNA)
RNA: B1 RNA with A26G, G27C, C29G, G30A, A31U
DNA 1: CAATCTGAATTCCGGTCTCCC
DNA 2: TGGTGGCTACGACGGGATT
B3: AGACAGA (DNA:RNA)
RNA: B1 RNA with A26G, G27A, A28C, C29A
DNA 1: CAATCTGAATTCCGGTCTCCC
DNA 2: TGGTGGCTACGACGGGATT
B4: CUCAUGG (DNA:RNA)
RNA: B1 RNA with A25C, A26U, G27C, C29U, A31G
DNA 1: CAATCTGAATTCCGGTCTCCC
DNA 2: TGGTGGCTACGACGGGATT
B5: AGAUAGC (DNA:RNA)
RNA: B1 RNA with A26G, G27A, A28U, C29A, A31C
DNA 1: CAATCTGAATTCCGGTCTCCC
DNA 2: TGGTGGCTACGACGGGATT
B6: UCGACAU (DNA:RNA)
RNA: B1 RNA with A25U, A26C, G30A, A31U
DNA 1: CAATCTGAATTCCGGTCTCCC
DNA 2: TGGTGGCTACGACGGGATT
B7: AGGUCUC (DNA:RNA)
RNA: B1 RNA with A26G, A28U, G30U, A31C
DNA 1: CAATCTGAATTCCGGTCTCCC
DNA 2: TGGTGGCTACGACGGGATT
B8: AAUACAC (DNA:RNA)
RNA: B1 RNA with G27U, G30A, A31C
DNA 1: CAATCTGAATTCCGGTCTCCC
DNA 2: TGGTGGCTACGACGGGATT
B9: AGGCGUA (DNA:RNA)
RNA: B1 RNA with A26G, A28C, C29G, G30U
DNA 1: CAATCTGAATTCCGGTCTCCC
DNA 2: TGGTGGCTACGACGGGATT
B10: UGAUAGU (DNA:RNA)
RNA: B1 RNA with A25U, A26G, G27A, A28U, C29A, A31U
DNA 1: CAATCTGAATTCCGGTCTCCC
DNA 2: TGGTGGCTACGACGGGATT
B11: CCUCAGA (DNA:RNA)
RNA: B1 RNA with A25C, A26C, G27U, A28C, C29A
DNA 1: CAATCTGAATTCCGGTCTCCC
DNA 2: TGGTGGCTACGACGGGATT
B12: CUCUGCU (DNA:RNA)
RNA: GGGAGACCGGAAUUCAGAUUGUCCCUCUGCUUUAAAUCCCGUCGUAGCCACCA
DNA 1: CAATCTGAATTCCGGTCTCCC
DNA 2: TGGTGGCTACGACGGGATT
B13: CUUGUUA (DNA:RNA)
RNA: B12 RNA with C27U, U28G, G29U, C30U, U31A
DNA 1: CAATCTGAATTCCGGTCTCCC
DNA 2: TGGTGGCTACGACGGGATT
B14: UUUUAUG (DNA:RNA)
RNA: B12 RNA with C25U, C27U, G29A, C30U, U31G
DNA 1: CAATCTGAATTCCGGTCTCCC
DNA 2: TGGTGGCTACGACGGGATT
B15: UGAAUAU (DNA:RNA)
RNA: B1 RNA with A25U, A26G, G27A, C29U, G30A, A31U
DNA 1: CAATCTGAATTCCGGTCTCCC
DNA 2: TGGTGGCTACGACGGGATT
B16: CUGGGCC (DNA:RNA)
RNA: B12 RNA with C27G, U28G, U31C
DNA 1: CAATCTGAATTCCGGTCTCCC
DNA 2: TGGTGGCTACGACGGGATT
B17: UGGGGCA (DNA:RNA)
RNA: B1 RNA with A25U, A26G, A28G, C29G, G30C
DNA 1: CAATCTGAATTCCGGTCTCCC
DNA 2: TGGTGGCTACGACGGGATT
B18: UUCCUGG (DNA:RNA)
RNA: B12 RNA with C25U, U28C, G29U, C30G, U31G
DNA 1: CAATCTGAATTCCGGTCTCCC
DNA 2: TGGTGGCTACGACGGGATT
B19: CUAGGUC (DNA:RNA)
RNA: B12 RNA with C27A, U28G, C30U, U31C
DNA 1: CAATCTGAATTCCGGTCTCCC
DNA 2: TGGTGGCTACGACGGGATT
B20: GUGGAUU (DNA:RNA)
RNA: B12 RNA with C25G, C27G, U28G, G29A, C30U
DNA 1: CAATCTGAATTCCGGTCTCCC
DNA 2: TGGTGGCTACGACGGGATT
B21: UAAUACA (DNA:RNA)
RNA: B1 RNA with A25U, G27A, A28U, C29A, G30C
DNA 1: CAATCTGAATTCCGGTCTCCC
DNA 2: TGGTGGCTACGACGGGATT
B22: GUCUCUU (DNA:RNA)
RNA: B12 RNA with C25G, G29C, C30U
DNA 1: CAATCTGAATTCCGGTCTCCC
DNA 2: TGGTGGCTACGACGGGATT
B23: GGAGGUA (DNA:RNA)
RNA: B1 RNA with A25G, A26G, G27A, A28G, C29G, G30U
DNA 1: CAATCTGAATTCCGGTCTCCC
DNA 2: TGGTGGCTACGACGGGATT
B24: UCUUUCA (DNA:RNA)
RNA: B12 RNA with C25U, U26C, C27U, G29U, U31A
DNA 1: CAATCTGAATTCCGGTCTCCC
DNA 2: TGGTGGCTACGACGGGATT
B25: GAGUAGU (DNA:RNA)
RNA: B1 RNA with A25G, A28U, C29A, A31U
DNA 1: CAATCTGAATTCCGGTCTCCC
DNA 2: TGGTGGCTACGACGGGATT
B26: GGCCCAA (DNA:RNA)
RNA: B1 RNA with A25G, A26G, G27C, A28C, G30A
DNA 1: CAATCTGAATTCCGGTCTCCC
DNA 2: TGGTGGCTACGACGGGATT
B27: UGAGUAG (DNA:RNA)
RNA: GGGAGACCGGAAUUCAGAUUGUCCUGAGUAGUUAAAUCCCGUCGUAGCCACCA
DNA 1: CAATCTGAATTCCGGTCTCCC
DNA 2: TGGTGGCTACGACGGGATT
B28: CUAUAUA (DNA:RNA)
RNA: B12 RNA with C27A, G29A, C30U, U31A
DNA 1: CAATCTGAATTCCGGTCTCCC
DNA 2: TGGTGGCTACGACGGGATT
B29: UGCACAG (DNA:RNA)
RNA: B27 RNA with A27C, G28A, U29C
DNA 1: CAATCTGAATTCCGGTCTCCC
DNA 2: TGGTGGCTACGACGGGATT
B30: GCUAAGU (DNA:RNA)
RNA: B1 RNA with A25G, A26C, G27U, C29A, A31U
DNA 1: CAATCTGAATTCCGGTCTCCC
DNA 2: TGGTGGCTACGACGGGATT
B31: UUAAACG (DNA:RNA)
RNA: B27 RNA with G26U, G28A, U29A, A30C
DNA 1: CAATCTGAATTCCGGTCTCCC
DNA 2: TGGTGGCTACGACGGGATT

Positions count from the first letter of the chain named. Some of the results follow.

The target of this assay is T1, RBFOX1 RRM. Description: EMSA; HiTS-Eq, 1 nM pool, 10 min; buffer printed only for the single-RNA assays: 10 mM Tris pH 7.5, 150 mM NaCl, 3.4 mM EDTA, 0.001% NP-40, 30 C. To be noted: tags: His6 N-terminal (pET28a); label: 5' 32P. Summed up:
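Purified RbFox RRM, wild type or mutant, was incubated for 10 min in 50 µL with 1 nM of a 5′-radiolabelled RNA pool carrying 7 randomized nucleotides, whose flanks were annealed to DNA oligonucleotides, over a series of increasing protein concentrations. Unbound RNA was resolved on 8% native PAGE, cut out, reverse-transcribed, barcoded by PCR and sequenced on an Illumina HiSeq 2500. Relative association constants were derived from changes in read counts for each RNA species versus the control reaction and normalised to the cognate motif.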
On the technique in general: Mobility shift assays separate free from complexed probe on a gel.
Take B1: the binding signal was 0.00419 KA relative to UGCAUGU.
For B2, the binding signal is 0.00663 KA relative to UGCAUGU.
Regarding B3, the binding signal was 0.00907 KA relative to UGCAUGU.
Then B4, with 0.00796 KA relative to UGCAUGU; and B5, with 0.0117 KA relative to UGCAUGU; and B6, with 0.00497 KA relative to UGCAUGU.
Then B7, with 0.0131 KA relative to UGCAUGU; and B8, with 0.00022 KA relative to UGCAUGU.
B9: the binding signal was 0.00915 KA relative to UGCAUGU.
Then B10, with 0.0208 KA relative to UGCAUGU.
Regarding B11, the binding signal is 0.00876 KA relative to UGCAUGU.
Then B12, with 0.0179 KA relative to UGCAUGU; and B13, with 0.00857 KA relative to UGCAUGU; and B14, with 0.0146 KA relative to UGCAUGU.
The same measure for B15: 0.0104 KA relative to UGCAUGU.
For the molecule B16, the binding signal was 0.0274 KA relative to UGCAUGU.
The same measure for B17: 0.0222 KA relative to UGCAUGU; for B18: 0.0123 KA relative to UGCAUGU; for B19: 0.0121 KA relative to UGCAUGU.
The same measure for B20: 0.0248 KA relative to UGCAUGU.
Then B21, with 0.00193 KA relative to UGCAUGU.
For the molecule B22, the binding signal is 0.016 KA relative to UGCAUGU.
The same measure for B23: 0.0125 KA relative to UGCAUGU; for B24: 0.0106 KA relative to UGCAUGU; for B25: 0.00842 KA relative to UGCAUGU.
Then B26, with 0.00717 KA relative to UGCAUGU.
Consider B27, for which the binding signal was 0.0177 KA relative to UGCAUGU.
As to B28, the binding signal was 0.00266 KA relative to UGCAUGU.
Take B29: the binding signal was 0.017 KA relative to UGCAUGU.
Then B30, with 0.0127 KA relative to UGCAUGU.
Consider B31, for which the binding signal is 0.00886 KA relative to UGCAUGU.

For the origin of these results see article PMC9911399, “Two distinct binding modes provide the RNA-binding protein RbFox with extraordinary sequence specificity”.
